Test results: PubChem BioAssay AID624417 (National Center for Advancing Translational Sciences (NCATS), 2012)
Among all 410,000 compounds or so, about 6,400 (1.6%) were called active. Inconclusive means that the source gave no clear call. Such entries were picked first, then a sample of the others. The call rests on the fitted dose curve; in most records, active means well fitted inhibition curve with a large enough effect; inconclusive means small, poorly fitted or top-dose-only effect; inactive means no such curve, though single readings can be large or run the other way. Potencies beside an inconclusive call are fits to weak or partial responses and may not hold up.

What follows are molecules tested against Glucagon-like peptide 1 receptor (Homo sapiens) (UniProt P43220) (assay: qHTS of GLP-1 Receptor Inverse Agonists (Inhibition Mode)). Conditions: HEK293 GLP-1R CRE-luciferase, luminescence, 24 h, GLP-1R form is constitutively active; activity change, negative = inhibition: at 38.3 µM (top of the series) unless noted.
How it was run: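 Using stably transfected HEK293 (constitutively active GLP-1R, cAMP-luciferase reporter), compounds were incubated 24 hr and luciferase measured by luminescence.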
Further: nearly all actives have a fitted effect of over 55% in size.
On the % scale 0 is the no-effect control and ±100 the full control effect; potency means the concentration at half of the fitted maximal effect; tags describe the fitted curve by direction and shape.

UniProt P43220, sequence (P43220 whole entry, looked up): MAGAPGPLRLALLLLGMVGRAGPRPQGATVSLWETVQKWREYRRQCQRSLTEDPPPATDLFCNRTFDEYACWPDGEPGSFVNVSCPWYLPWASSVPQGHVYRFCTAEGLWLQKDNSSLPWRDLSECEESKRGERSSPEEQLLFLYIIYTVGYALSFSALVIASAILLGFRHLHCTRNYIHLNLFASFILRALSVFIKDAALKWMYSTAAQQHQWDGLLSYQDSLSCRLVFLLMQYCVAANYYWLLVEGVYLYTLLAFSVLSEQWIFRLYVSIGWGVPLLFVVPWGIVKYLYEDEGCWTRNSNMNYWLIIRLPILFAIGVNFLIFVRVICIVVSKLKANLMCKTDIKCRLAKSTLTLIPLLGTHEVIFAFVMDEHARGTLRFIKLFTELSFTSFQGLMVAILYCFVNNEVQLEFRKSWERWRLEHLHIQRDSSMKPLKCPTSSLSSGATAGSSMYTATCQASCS

Activity change, negative = inhibition, inactive:
CCCNC(=O)C1(C)CCCN(C(=O)c2cccc(Cl)c2)C1 (centres undefined) 6.56%
Cc1ccc(NC(=O)Cn2c(=O)n(Cc3ccccc3)c(=O)c3sc4ccccc4c32)cc1 14.7%
COc1ccc(N2CCN(CCNC(=O)c3nnc(Cc4c(F)cccc4Cl)o3)CC2)cc1 5.26%
CCOC(=O)C(CC)n1nnc2sc(-c3ccccc3)cc2c1=O (centres undefined) -17.5%
Cc1cccc(C(=O)NCc2ccc(S(N)(=O)=O)cc2)c1[N+](=O)[O-] 7.01%
Cn1c2ccccc2c2cnn(CC(=O)NCCCN3CCCCC3)c(=O)c21 10.1%
Cc1cccc2cc(CN(Cc3nnnn3C3CCCCC3)C3CCCC3)c3nnnn3c12 0.76%

Potency, inconclusive:
CS(=O)(=O)c1ccc(C(=O)NCCN2C(=O)S/C(=C\c3cccnc3)C2=O)cc1[N+](=O)[O-] 28.2 µM [inhibitor, single point]
CC1CC(C)CN(S(=O)(=O)c2ccc3c(c2)CC(C)N3C(=O)C2CCC2)C1 (centres undefined) 28.2 µM [inhibitor, single point]
CCS(=O)(=O)c1ncc(N(Cc2ccccc2)Cc2ccco2)c(C(=O)Nc2cccc(Cl)c2C)n1 7.08 µM [inhibitor, partial curve, poor fit]
COc1ccccc1N(CC(=O)N1CCN(c2ccccc2)CC1)S(=O)(=O)c1ccc(C)cc1 22.4 µM [inhibitor, single point]
Cc1c(Cl)cccc1-c1ccc(CNCCSc2nnnn2-c2ccccc2)o1 28.2 µM [inhibitor, single point]
CCOC(=O)C1=C(CN2CCCCCC2)NC(=O)NC1c1cccc([N+](=O)[O-])c1 (centres undefined) 10 µM [inhibitor, partial curve, poor fit]
CC1=[N+](CC(=O)c2ccccc2)CCn2cccc21 22.4 µM [inhibitor, single point]
CCOc1ccc(NC(=O)c2c(Nc3ccccc3C)sc(C(=O)c3ccccc3)c2N)cc1 11.2 µM [inhibitor, single point]
O=C(CN1C(=O)C2(SCC(=O)N2c2cccc(Cl)c2)c2ccccc21)NCCc1ccccc1 (centres undefined) 28.2 µM [inhibitor, single point]
CCOC(=O)C1(CCCc2ccccc2)CCN(C2CCN(C(C)=O)CC2)CC1 0.891 µM [inhibitor, partial curve, poor fit]
O=C1Nc2ccccc2S/C1=C/NCc1ccccc1Cl 28.2 µM [inhibitor, single point]
CCOC(=O)C1=CN(Cc2cccc(F)c2)S(=O)(=O)N(C)C1c1ccccc1 (centres undefined) 12.6 µM [inhibitor, single point]
Cc1cc(Cl)ccc1N=c1ssnc1Cl 11.2 µM [inhibitor, single point]
Cc1ccc(Nc2c(-c3c[nH]c4ccccc34)nc3ccccn23)cc1 28.2 µM [inhibitor, single point]
CC(C)NC(=O)[C@H](CSCc1ccccc1)N1Cc2ccccc2C1=O 28.2 µM [inhibitor, single point]
Cc1ccccc1NC(=O)c1cccc(S(=O)(=O)Oc2ccc([N+](=O)[O-])cc2)c1 10 µM [inhibitor, partial curve, poor fit]
CC(C)Oc1ccccc1-c1nc(SCC(=O)c2ccc(F)cc2)n[nH]1 28.2 µM [inhibitor, single point]
CC(C)Cc1nc(SCc2cccnc2)c2c(=O)n(C)c(=O)n(C)c2n1 15.8 µM [inhibitor, single point]
CCNC(=O)C1(C)CCN(C(=O)c2ccc(OC(F)F)cc2)C1 (centres undefined) 28.2 µM [inhibitor, single point]
CCOC(=O)c1ccc(NC(=O)/C=C/c2cccs2)cc1 10 µM [inhibitor, partial curve, poor fit]
CC1Cc2ccccc2N1Cc1nc2cc(Cl)ccc2c(=O)[nH]1 (centres undefined) 1.58 µM [inhibitor, partial curve, poor fit]
O=C(COC(=O)c1c2c(nc3ccccc13)CCN(Cc1ccccc1)C2)Nc1c(F)cccc1F 17.8 µM [inhibitor, single point]
Cc1ccc(NC(=O)c2ccc(CSc3ccccn3)cc2)c(O)c1 12.6 µM [inhibitor, single point]
COc1ccc(CN2C(=O)C(NC(=O)c3cccc(C)c3)(C(F)(F)F)N=C2c2ccccc2)cc1 (centres undefined) 11.2 µM [inhibitor, partial curve, poor fit]
CC[C@H](C)[C@@H](CNC)NC[C@@H](Cc1ccc(O)cc1)NCC(C)(C)C 28.2 µM [inhibitor, single point]
Cc1ccc(Cn2c(SCc3ccc(C(=O)NC4CCCCC4)cc3)nc3ccncc32)cc1 28.2 µM [inhibitor, single point]
CN(CC(=O)NC(=O)NCc1ccccc1)Cc1ccc(Cl)c(Cl)c1 10 µM [inhibitor, partial curve, poor fit]
CCOC(=O)C1(CCOc2ccccc2)CCN(Cc2cccc3c2OCO3)CC1 7.94 µM [inhibitor, partial curve, poor fit]
Cc1ccc(NS(=O)(=O)c2cc([N+](=O)[O-])ccc2NNC(=S)Nc2cc(C)ccc2C)c(C)c1 10 µM [inhibitor, partial curve, poor fit]
O=C(NCc1ccc2c(c1)OCO2)C1CCCN1S(=O)(=O)c1ccc(Cl)cc1 (centres undefined) 11.2 µM [inhibitor, partial curve, poor fit]
CCCn1nc2cc(C(=O)NCC34CC5CC(CC(C5)C3)C4)ccc2c1OCC 12.6 µM [inhibitor, single point]
C=CCN(Cc1cccc(OC)c1OC)C(=O)Oc1ccccc1 8.91 µM [inhibitor, partial curve, poor fit]
